Laboratory results reported in paper PMC12820563, “FoxP3 forms a head-to-head dimer in vivo and stabilizes its multimerization on adjacent microsatellites”.
Some of the results follow.

molecular target: T1, MBP-FoxP1dN (Mus musculus, UniProt P58462 326-579); assay: PD-seq (MBP pull-down with sequencing); 20 mM Tris-HCl pH 7.5, 100 mM NaCl, 1.5 mM MgCl2, 0.4 uM protein, 0.1 uM dsDNA library, 30 min, room temperature, amylose pull-down; high values mean tight binding; conditions: protein: recombinant; tags: His6-MBP; chain copies: 2; dsDNA, one strand shown
T1 sequence: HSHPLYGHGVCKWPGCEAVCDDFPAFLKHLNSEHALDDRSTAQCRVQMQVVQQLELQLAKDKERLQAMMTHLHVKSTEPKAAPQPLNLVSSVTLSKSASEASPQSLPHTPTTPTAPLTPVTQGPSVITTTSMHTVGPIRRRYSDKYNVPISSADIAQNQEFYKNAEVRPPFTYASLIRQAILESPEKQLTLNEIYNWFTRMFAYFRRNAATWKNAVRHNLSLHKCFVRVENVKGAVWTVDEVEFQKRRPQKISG
Summary of the method: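 Binding is reads-per-million enrichment of pull-down over input, with replicates pooled. It comes from 30 min room-temperature incubation in Tris pH 7.5 buffer with NaCl and MgCl2 of 0.4 µM His6-MBP-tagged, N-terminally truncated mouse FoxP3 or FoxP1 fragment from E. coli with 0.1 µM Klenow-filled degenerate double-stranded DNA library, followed by amylose resin capture, three washes and Illumina sequencing of the released DNA.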

Sequence | binding signal
GATGATTGTTCTCCCAGCTGATGAATTCGAGGTCTCGAGTAAACAAATTTTCCTAATCTTTCTGTTCAAGCGCCATCTAC | 0.83 RPM ratio (pull-down/input)
GATGATTGTTCTCCCAGCTGATGAATTGTCCGCCTCGAGTAAACAAATTTTCCTAATCTTTCTGTTCAAGCGCCATCTAC | 0.977 RPM ratio (pull-down/input)
GATGATTGTTCTCCCAGCTGATGAATTCGGTCCCTCGAGTAAACAAATTTTCCTAATCTTTCTGTTCAAGCGCCATCTAC | 0.768 RPM ratio (pull-down/input)
GATGATTGTTCTCCCAGCTGATGAATTCGGCACTTCGAGTAAACAAATTTTCCTAATCTTTCTGTTCAAGCGCCATCTAC | 0.87 RPM ratio (pull-down/input)
GATGATTGTTCTCCCAGCTGATGAATTTCAATATTCGAGTAAACAAATTTTCCTAATCTTTCTGTTCAAGCGCCATCTAC | 0.922 RPM ratio (pull-down/input)
GATGATTGTTCTCCCAGCTGATGAATTCTAATGGTCGAGTAAACAAATTTTCCTAATCTTTCTGTTCAAGCGCCATCTAC | 0.846 RPM ratio (pull-down/input)
GATGATTGTTCTCCCAGCTGATGAATTCTGTTGGTCGAGTAAACAAATTTTCCTAATCTTTCTGTTCAAGCGCCATCTAC | 1.5 RPM ratio (pull-down/input)
GATGATTGTTCTCCCAGCTGATGAATTTGAGGACTCGAGTAAACAAATTTTCCTAATCTTTCTGTTCAAGCGCCATCTAC | 0.703 RPM ratio (pull-down/input)
GATGATTGTTCTCCCAGCTGATGAATTAAGTTGATCGAGTAAACAAATTTTCCTAATCTTTCTGTTCAAGCGCCATCTAC | 1.17 RPM ratio (pull-down/input)
GATGATTGTTCTCCCAGCTGATGAATTTGCGATTTCGAGTAAACAAATTTTCCTAATCTTTCTGTTCAAGCGCCATCTAC | 1.07 RPM ratio (pull-down/input)
GATGATTGTTCTCCCAGCTGATGAATTTGCCGACTCGAGTAAACAAATTTTCCTAATCTTTCTGTTCAAGCGCCATCTAC | 0.868 RPM ratio (pull-down/input)
GATGATTGTTCTCCCAGCTGATGAATTAGGCCGCTCGAGTAAACAAATTTTCCTAATCTTTCTGTTCAAGCGCCATCTAC | 0.851 RPM ratio (pull-down/input)
GATGATTGTTCTCCCAGCTGATGAATTCGGTCCGTCGAGTAAACAAATTTTCCTAATCTTTCTGTTCAAGCGCCATCTAC | 0.782 RPM ratio (pull-down/input)
GATGATTGTTCTCCCAGCTGATGAATTATGACTGTCGAGTAAACAAATTTTCCTAATCTTTCTGTTCAAGCGCCATCTAC | 0.934 RPM ratio (pull-down/input)
GATGATTGTTCTCCCAGCTGATGAATTTGTGGGTTCGAGTAAACAAATTTTCCTAATCTTTCTGTTCAAGCGCCATCTAC | 0.976 RPM ratio (pull-down/input)
GATGATTGTTCTCCCAGCTGATGAATTAACCAGATCGAGTAAACAAATTTTCCTAATCTTTCTGTTCAAGCGCCATCTAC | 0.853 RPM ratio (pull-down/input)
GATGATTGTTCTCCCAGCTGATGAATTAACTGGATCGAGTAAACAAATTTTCCTAATCTTTCTGTTCAAGCGCCATCTAC | 0.841 RPM ratio (pull-down/input)
GATGATTGTTCTCCCAGCTGATGAATTACACGTCTCGAGTAAACAAATTTTCCTAATCTTTCTGTTCAAGCGCCATCTAC | 1.17 RPM ratio (pull-down/input)
GATGATTGTTCTCCCAGCTGATGAATTAATCAACTCGAGTAAACAAATTTTCCTAATCTTTCTGTTCAAGCGCCATCTAC | 1.1 RPM ratio (pull-down/input)
GATGATTGTTCTCCCAGCTGATGAATTTAATCGTTCGAGTAAACAAATTTTCCTAATCTTTCTGTTCAAGCGCCATCTAC | 0.959 RPM ratio (pull-down/input)
GATGATTGTTCTCCCAGCTGATGAATTCGGGGGGTCGAGTAAACAAATTTTCCTAATCTTTCTGTTCAAGCGCCATCTAC | 0.806 RPM ratio (pull-down/input)

Sequence | binding signal
GATGATTGTTCTCCCAGCTGATGAATTGGAGTTCTCGAGTAAACAAATTTTCCTAATCTTTCTGTTCAAGCGCCATCTAC | 0.855 RPM ratio (pull-down/input)
GATGATTGTTCTCCCAGCTGATGAATTTCCATAATCGAGTAAACAAATTTTCCTAATCTTTCTGTTCAAGCGCCATCTAC | 1.21 RPM ratio (pull-down/input)
GATGATTGTTCTCCCAGCTGATGAATTCTAGGAGTCGAGTAAACAAATTTTCCTAATCTTTCTGTTCAAGCGCCATCTAC | 0.797 RPM ratio (pull-down/input)
GATGATTGTTCTCCCAGCTGATGAATTTATCCACTCGAGTAAACAAATTTTCCTAATCTTTCTGTTCAAGCGCCATCTAC | 1.11 RPM ratio (pull-down/input)
GATGATTGTTCTCCCAGCTGATGAATTTCGAGCCTCGAGTAAACAAATTTTCCTAATCTTTCTGTTCAAGCGCCATCTAC | 0.836 RPM ratio (pull-down/input)
GATGATTGTTCTCCCAGCTGATGAATTCCAGCTTTCGAGTAAACAAATTTTCCTAATCTTTCTGTTCAAGCGCCATCTAC | 0.886 RPM ratio (pull-down/input)
GATGATTGTTCTCCCAGCTGATGAATTGAAGTACTCGAGTAAACAAATTTTCCTAATCTTTCTGTTCAAGCGCCATCTAC | 0.796 RPM ratio (pull-down/input)
GATGATTGTTCTCCCAGCTGATGAATTGGCCAAATCGAGTAAACAAATTTTCCTAATCTTTCTGTTCAAGCGCCATCTAC | 0.996 RPM ratio (pull-down/input)
GATGATTGTTCTCCCAGCTGATGAATTGGACATTTCGAGTAAACAAATTTTCCTAATCTTTCTGTTCAAGCGCCATCTAC | 0.914 RPM ratio (pull-down/input)
GATGATTGTTCTCCCAGCTGATGAATTGGGACCATCGAGTAAACAAATTTTCCTAATCTTTCTGTTCAAGCGCCATCTAC | 0.875 RPM ratio (pull-down/input)
GATGATTGTTCTCCCAGCTGATGAATTCGTGTCGTCGAGTAAACAAATTTTCCTAATCTTTCTGTTCAAGCGCCATCTAC | 0.983 RPM ratio (pull-down/input)
GATGATTGTTCTCCCAGCTGATGAATTTTCTCGGTCGAGTAAACAAATTTTCCTAATCTTTCTGTTCAAGCGCCATCTAC | 0.829 RPM ratio (pull-down/input)
GATGATTGTTCTCCCAGCTGATGAATTATACCATTCGAGTAAACAAATTTTCCTAATCTTTCTGTTCAAGCGCCATCTAC | 0.975 RPM ratio (pull-down/input)
GATGATTGTTCTCCCAGCTGATGAATTTATCGTTTCGAGTAAACAAATTTTCCTAATCTTTCTGTTCAAGCGCCATCTAC | 1.08 RPM ratio (pull-down/input)
GATGATTGTTCTCCCAGCTGATGAATTCACAAACTCGAGTAAACAAATTTTCCTAATCTTTCTGTTCAAGCGCCATCTAC | 1.06 RPM ratio (pull-down/input)
GATGATTGTTCTCCCAGCTGATGAATTAGAAAACTCGAGTAAACAAATTTTCCTAATCTTTCTGTTCAAGCGCCATCTAC | 0.959 RPM ratio (pull-down/input)
GATGATTGTTCTCCCAGCTGATGAATTTGAAGTCTCGAGTAAACAAATTTTCCTAATCTTTCTGTTCAAGCGCCATCTAC | 0.792 RPM ratio (pull-down/input)
GATGATTGTTCTCCCAGCTGATGAATTCGGTTCTTCGAGTAAACAAATTTTCCTAATCTTTCTGTTCAAGCGCCATCTAC | 0.845 RPM ratio (pull-down/input)
GATGATTGTTCTCCCAGCTGATGAATTGAGAAGCTCGAGTAAACAAATTTTCCTAATCTTTCTGTTCAAGCGCCATCTAC | 0.789 RPM ratio (pull-down/input)
GATGATTGTTCTCCCAGCTGATGAATTACTGTGGTCGAGTAAACAAATTTTCCTAATCTTTCTGTTCAAGCGCCATCTAC | 1.06 RPM ratio (pull-down/input)
GATGATTGTTCTCCCAGCTGATGAATTCAACCGCTCGAGTAAACAAATTTTCCTAATCTTTCTGTTCAAGCGCCATCTAC | 0.796 RPM ratio (pull-down/input)

Sequence | binding signal
GATGATTGTTCTCCCAGCTGATGAATTGTGTATCTCGAGTAAACAAATTTTCCTAATCTTTCTGTTCAAGCGCCATCTAC | 1.67 RPM ratio (pull-down/input)
GATGATTGTTCTCCCAGCTGATGAATTCGTACCGTCGAGTAAACAAATTTTCCTAATCTTTCTGTTCAAGCGCCATCTAC | 0.876 RPM ratio (pull-down/input)
GATGATTGTTCTCCCAGCTGATGAATTTTGCCCGTCGAGTAAACAAATTTTCCTAATCTTTCTGTTCAAGCGCCATCTAC | 0.777 RPM ratio (pull-down/input)
GATGATTGTTCTCCCAGCTGATGAATTCAGAAACTCGAGTAAACAAATTTTCCTAATCTTTCTGTTCAAGCGCCATCTAC | 0.844 RPM ratio (pull-down/input)
GATGATTGTTCTCCCAGCTGATGAATTATACATGTCGAGTAAACAAATTTTCCTAATCTTTCTGTTCAAGCGCCATCTAC | 1.12 RPM ratio (pull-down/input)
GATGATTGTTCTCCCAGCTGATGAATTGGACCATTCGAGTAAACAAATTTTCCTAATCTTTCTGTTCAAGCGCCATCTAC | 0.919 RPM ratio (pull-down/input)
GATGATTGTTCTCCCAGCTGATGAATTTAGGCCCTCGAGTAAACAAATTTTCCTAATCTTTCTGTTCAAGCGCCATCTAC | 0.874 RPM ratio (pull-down/input)
GATGATTGTTCTCCCAGCTGATGAATTCTTAGTCTCGAGTAAACAAATTTTCCTAATCTTTCTGTTCAAGCGCCATCTAC | 0.852 RPM ratio (pull-down/input)
GATGATTGTTCTCCCAGCTGATGAATTCCCGGAATCGAGTAAACAAATTTTCCTAATCTTTCTGTTCAAGCGCCATCTAC | 0.901 RPM ratio (pull-down/input)
GATGATTGTTCTCCCAGCTGATGAATTGAGTAACTCGAGTAAACAAATTTTCCTAATCTTTCTGTTCAAGCGCCATCTAC | 0.883 RPM ratio (pull-down/input)
GATGATTGTTCTCCCAGCTGATGAATTGTGCATTTCGAGTAAACAAATTTTCCTAATCTTTCTGTTCAAGCGCCATCTAC | 1.4 RPM ratio (pull-down/input)
GATGATTGTTCTCCCAGCTGATGAATTGTGTTCATCGAGTAAACAAATTTTCCTAATCTTTCTGTTCAAGCGCCATCTAC | 1.29 RPM ratio (pull-down/input)
GATGATTGTTCTCCCAGCTGATGAATTCCTAATTTCGAGTAAACAAATTTTCCTAATCTTTCTGTTCAAGCGCCATCTAC | 0.96 RPM ratio (pull-down/input)
GATGATTGTTCTCCCAGCTGATGAATTCAATGATTCGAGTAAACAAATTTTCCTAATCTTTCTGTTCAAGCGCCATCTAC | 0.982 RPM ratio (pull-down/input)
GATGATTGTTCTCCCAGCTGATGAATTTCAATGGTCGAGTAAACAAATTTTCCTAATCTTTCTGTTCAAGCGCCATCTAC | 0.924 RPM ratio (pull-down/input)
GATGATTGTTCTCCCAGCTGATGAATTACCACAATCGAGTAAACAAATTTTCCTAATCTTTCTGTTCAAGCGCCATCTAC | 1.47 RPM ratio (pull-down/input)
GATGATTGTTCTCCCAGCTGATGAATTCGCTAGCTCGAGTAAACAAATTTTCCTAATCTTTCTGTTCAAGCGCCATCTAC | 0.798 RPM ratio (pull-down/input)
GATGATTGTTCTCCCAGCTGATGAATTGAATCAGTCGAGTAAACAAATTTTCCTAATCTTTCTGTTCAAGCGCCATCTAC | 0.887 RPM ratio (pull-down/input)
GATGATTGTTCTCCCAGCTGATGAATTAACCGTGTCGAGTAAACAAATTTTCCTAATCTTTCTGTTCAAGCGCCATCTAC | 0.912 RPM ratio (pull-down/input)
GATGATTGTTCTCCCAGCTGATGAATTGCATCCCTCGAGTAAACAAATTTTCCTAATCTTTCTGTTCAAGCGCCATCTAC | 1.46 RPM ratio (pull-down/input)
GATGATTGTTCTCCCAGCTGATGAATTCTAATATTCGAGTAAACAAATTTTCCTAATCTTTCTGTTCAAGCGCCATCTAC | 0.982 RPM ratio (pull-down/input)
